Data published in the supplement of paper PMC11417369.
This is one part of the list.

Test system: PfSIP2 AP2 domain 1 (GST-tagged)
Assay: gcPBM binding intensity (ln(normalized median fluorescence intensity)); higher = stronger DNA binding
Method in brief: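 Binding intensity is the highest Masliner-normalised natural-log median intensity over replicate spots in either probe orientation. To obtain it, GST-tagged P. falciparum DNA-binding domains made in E. coli were incubated for 1 h on an Agilent 4 × 180k array of primer-extended double-stranded 36-bp intergenic genomic probes plus negative controls. Detection used Alexa488 anti-GST antibody with scanning at 488 nm.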

| Sequence | gcPBM binding intensity (ln) |
| --- | --- |
| ATACATATATTTTTATGTACATATATTTTTTTTGTA [XGTACX_site4546] | 7.15 |
| ATAATGATTATAATATGTACATAAATATATATATTA [XGTACX_site5029] | 7.2 |
| AAACAATACATATATTGTACATATATTATATTATAT [XGTACX_site8136] | 7 |
| CGGATCTATAAGTGTACACAATCTAGCGAAAAGTTT [CACACA_site4932] | 7.06 |
| TTAGAAATTCATTTTACACACAATTCAAAAGAATGT [CACACA_site2104] | 6.64 |
| AATTTGAAATAAAGTAGTACAGTATATAAAAATATA [XGTACX_site128] | 6.99 |
| AAAAAATCAAAACACACACACACACCCAAAAAAAAA [CACACA_site1444] | 7.04 |
| ATAAAATAAAAAAGTAGTACACACTTCACGATATTT [XGTACX_site8289] | 7.18 |
| ATTATGTTATATATATGTACATATATAATGTTCATA [XGTACX_site6184] | 7.14 |
| AATAAATAAACAAATTAACACACAGAATTTTTTTTT [CACACA_site8485] | 6.82 |
| ATAATTATAAAATAAACACACATATATATTTATATG [CACACA_site440] | 6.82 |
| AAAAATAATGCACATATATATAATATGTATATGTAT [CACACA_negctrl_site443] | 7.22 |
| TTTTAAACAAGACACACACACATATATATATATATA [CACACA_site925] | 9.63 |
| TTATTGTAAATATATGCATGTGCAAAATGAAAAAAA [TGCATGCA_site399] | 7.97 |
| ATGTTTACATATTAGGGTACATAATAAATTGCATAT [XGTACX_site6712] | 6.99 |
| CATGTATTTTATATTACACACTAATATTATATATAT [CACACA_site1508] | 7.51 |
| GAATGTATAAAATGAACACACGCCAAATTAAATGAA [CACACA_site3044] | 6.9 |
| AATAAACAAATATGTACACACATATACCTATAAATA [CACACA_site7358] | 7.03 |
| CCAACATATATTATCACACACATATATATATATATA [CACACA_site2016] | 9.6 |
| ATATTAGATTAATTTACACACAGAAAATGAGATTTT [CACACA_site541] | 6.72 |
| TAGAGTATATATAAATGTACATATTTTATGCTAATT [XGTACX_site7821] | 7.14 |
| AAAAAATTAAATAATTACAAAAAAATAAAATAAAAA [GTGCAC_negctrl_site638] | 6.54 |

| Sequence | gcPBM binding intensity (ln) |
| --- | --- |
| TTATATATTAATAGTAGTACTATATTGAATCACCCC [XGTACX_site2868] | 7.46 |
| AGTTTATAGTGATATTGTACATATATATATATATAT [XGTACX_site572] | 9.24 |
| TTATTTTTGTTTTGAAGTACAAAAAAATATATTCTT [XGTACX_site6416] | 7.01 |
| AAAATTTATATAAGCACACAAATATATATTTATATC [CACACA_site3291] | 6.84 |
| TATTTATACTCAACTTTCTGTTATTCCAACTTTTTT [XGTACX_negctrl_site410] | 6.87 |
| ACATAAGAACATATTTGTACGTATATAAATTAAATA [XGTACX_site6127] | 7.09 |
| ACAACAAAAATAAGCACACACAAATATACATACATA [CACACA_site7664] | 7.18 |
| ATATATATATATGTGTGTACATATATGTGGATGGAT [XGTACX_site6240] | 9.23 |
| AGGTAGAAAAAAGACACACACATTATGTATATATAT [CACACA_site377] | 7.6 |
| TTATAGGATCAAGCGCGTACATATCTTTATAAAAGA [XGTACX_site5775] | 6.83 |
| ATATACAAATATATATATATATATATATATATATAT [CACACA_negctrl_site886] | 9.65 |
| TATTTCTTTATTGGCACACATTTTTTCAATTATATA [CACACA_site4975] | 7.32 |
| GCAAATATGTTGATATGTACATATATATATATATAT [XGTACX_site445] | 9.06 |
| ATTATTTTAATAAAACGTACAAAATATAAATCAAAA [XGTACX_site3770] | 7.3 |
| AAAAAATATACATATACACACATATGTATATATAAT [CACACA_site8676] | 7.01 |
| AATAACAAAATATTAACACACATAACATATTATAAA [CACACA_site2803] | 6.85 |
| TTTTTTCATATAAATACATGCACACAAAAATATCAA [TGCATGCA_site602] | 8.63 |
| TAATGTTTTTTTTGTTTACCAAAAATAATACATTAT [CACACA_negctrl_site203] | 6.96 |
| AGTAGATATAATTATAGTACTTTGATGTTTTCTTTA [XGTACX_site5038] | 6.82 |
| TTTTTTTTTAGAAAAACATGCATGTCCTAAAAATAA [TGCATGCA_site684] | 7.21 |
| TGGCAAAATAGGCACACACACATATACATCTATATT [CACACA_site6626] | 7.11 |
